From patent US20070059684A1 (UNIVERSITY OF MEDICINE AND DENTISTRY OF NEW JERSEY, published 2007)

How the values were obtained:
Format in all cases: cell-based, Saccharomyces cerevisiae
[1] = system: L-A derived −1 ribosomal frameshifting; settings: JD88 cells
[2] = system: Tyl derived +1 ribosomal frameshifting; settings: JD88 cells, pJD104
[3] = system: −1 ribosomal frameshifting in mof mutant cells

COc1ccc(C[C@H]2NC[C@H](O)[C@H]2OC(C)=O)cc1 [anisomycin]
efficiency of −1 ribosomal frameshifting ([1]; increasing drug concentrations): decreasing −1 ribosomal frameshifting efficiencies
effects on −1 ribosomal frameshifting, mixing experiment ([1]; anisomycin and sparsomycin together): cancel one another out
+1 ribosomal frameshifting [2]: neither drug had any affect on +1 ribosomal frameshifting
−1 frameshifting efficiencies ([3]; mof6-1 cells): does affect −1 frameshifting efficiencies
efficiency of −1 ribosomal frameshifting ([3]; mof9-1 cells): no effect
